# Reference: the supplement of paper PMC11417369
# The other results are listed elsewhere or left out.
# Tested on: PF3D7_0420300 AP2 domain 1 (GST-tagged)
# Experiment: gcPBM binding intensity (ln(normalized median fluorescence intensity)); higher = stronger DNA binding
# In short: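 Binding intensity is defined as the maximum Masliner-normalised natural-log median intensity across replicate spots for either probe orientation. It was measured on an Agilent 4 × 180k array of primer-extended double-stranded 36-bp intergenic genomic probes and negative controls, to which GST-tagged P. falciparum DNA-binding domains made in E. coli were applied for 1 h in 1× PBS with 1% milk, 0.2 mg/ml BSA, 0.5% salmon testes DNA and 0.03% Triton X-100. Detection was by Alexa488 anti-GST antibody and scanning at 488 nm.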
row,Sequence,gcPBM binding intensity (ln)
1,GGTATATAAAAATATTGTACGAAAATATGCATATAA [XGTACX_site2501],9.24
2,GTATGTTAATTTAATTGTACAAAAAGATACACTGAT [XGTACX_site5710],9.32
3,TTTTAAAAAAAACAAAAACATTGTCATATGGAAAAT [CACACA_negctrl_site297],9.16
4,AAATATAAAAAATATACACACATATAAAATCTATAT [CACACA_site7406],9.67
5,AGGAACAATATATTTGCACACAAAAAATATATATTT [CACACA_site3316],9.44
6,TATATATATATAATTTGTACATATATATGTAACAAT [XGTACX_site8728],9.16
7,TTCTGCTACCACTTGAATGTCAATGAAATTAAAAAA [CACACA_negctrl_site1164],8.88
8,ATTTATAAAACAGGCACACATATAATAAATTTTATA [CACACA_site2600],9.54
9,TAATAATTATTGCACGCACACAAAAACCTATAGATT [CACACA_site2931],9.45
10,ACTATAAATATTTATAAACACACAAATATATATATT [CACACA_site7891],9.57
11,ATACAATACACCGAACGTACATAAATCTATCTTTTA [XGTACX_site3668],9.4
12,ATTTTTTTTTTTACAGTGGAACCATATTTGCTCATT [CACACA_negctrl_site940],9.2
13,GATTATCTATCGCTTGAATGAAATGAAATCATGCAA [GTGCAC_negctrl_site471],8.77
14,AATACCGGAAAGCAAACACACATTTTAAAACCATAA [CACACA_site3862],9.85
15,ATAATAAATGATAGCACACATATGTACATATATACA [CACACA_site864],9.53
16,AAATAAAATAAAAGCACACAAAATGTAAATAATTAT [CACACA_site2775],9.74
17,AAAATACTTTGAATTTGTACATATAGACATAATATT [XGTACX_site6181],9.11
18,CGCGAACATACATACACACACATATTTATATAGGTA [CACACA_site6241],9.81
19,AAAGAAATAAAAAAAAGTACACAATTATAAATATAT [XGTACX_site3428],9.55

row,Sequence,gcPBM binding intensity (ln)
1,GTATGTAATATTTTAGTGCAAAAAAAAAAAAAAAAA [GTGCAC_site9790],8.58
2,ACAAAAATATTTGTAAAAAGAAATATAAATAAATAA [TGCATGCA_negctrl_site357],9.13
3,AAAAATAGAGCAGCTCTCATATTTTTATGTGCAATA [CACACA_negctrl_site837],8.95
4,AGGATATATTATATGTACACACACATATAAGGGATT [GTGCAC_negctrl_site47],9.91
5,TATTACACACAATATTGTACACATAGGAAAAATATT [XGTACX_site1726],9.62
6,GCATTTATGAAAAATGTACACACATCAAATGCTTAT [CACACA_site9347],9.43
7,TATTTTTTACATTCGTGTACGCATTTTTGTGAATTT [XGTACX_site5339],9.28
8,TTTTAATTAGTACAAACACACATATACACCCAAAAA [CACACA_site5422],9.69
9,ATATAAAAAAGGGAGGTAAATGAATGTGAAACCCAA [GTGCAC_negctrl_site359],9.55
10,CTAATATAGGTATGCACACACAATATGTACATATTT [CACACA_site7558],9.74
11,TAATTTTTTTTAAACACACACATTACATTCAAAAAT [CACACA_site127],9.35
12,TTCACTAATAAATACGCACACATATACATATATATA [CACACA_site1383],9.49
13,TTTCAAATATATATAGCACACAAGGTATAATATAAA [CACACA_site877],9.32
14,TAATTGTAGACATGCACACACAAATATTATATATGT [CACACA_site845],9.69
15,AAGGTATAGAAACACACACACGTGAATATAGTTTAA [CACACA_site5109],9.71
16,TATATATGTATATATTGTACTTTAAGACAAATATAT [XGTACX_site1052],9.06
17,AATATTTTTCAATTTCATGTGCATTCATTGAAGTTA [CACACA_negctrl_site1232],9.13
18,TTCTTAAATATATTCAACATACATAATATATAATCT [CACACA_negctrl_site1806],9.09
19,TATATAACATATATATGTACACATAATATCAGATTT [XGTACX_site1041],9.27

row,Sequence,gcPBM binding intensity (ln)
1,CGTTATATAATAAAGGTGCATAGATATATCATTATA [GTGCAC_site9774],9.16
2,CCTCTCATTTTATATAGTACATATTTCAAAAAAAAA [XGTACX_site488],8.9
3,GCATATATGGATATATAGGTATATATAAATGCAATA [GTGCAC_negctrl_site24],9.24
4,AGGAGGATAGTTCACAGTACCCAGTAACTCTACGGA [XGTACX_site1997],9.12
5,ATATAAAAAAAAAATTGTACAAAAATATATACATAT [XGTACX_site469],9.19
6,GCATATTTTCCCTGTGAATAAAGTTTTTTTTTTTAT [XGTACX_negctrl_site87],9.44
7,TATAAAGATATAAATGCACACGTATTAAAAAAAAAA [CACACA_site8223],9.49
8,TCTAATACACAATGTTGTACATATTAATATATATGT [XGTACX_site2931],9.34
9,ATCATTCTTAAACCGTGTACTTATTATTTTTTTTTT [XGTACX_site2798],9.63
10,AAATGACTATATAAAAGTACTAGAAAGTATAAATAT [XGTACX_site944],9.41
11,AAAATACACGATAGTTGTACATTAAATGTATACAAT [XGTACX_site360],9.46
12,CATCCGTTGATATATGCATGCATATTGTTATTACCA [TGCATGCA_site868],9.46
13,TTCCTTTGTTGTCGTTGTACTTATATGGTTATAATT [XGTACX_site3082],9.81
14,TATACATAAAAAAATTTTACCAGGTTAATACAAATA [CACACA_negctrl_site1171],9.25
15,TACCTTATGTTATATACACACATATAACATAATATA [CACACA_site6741],9.5
16,ATATATATATATAGTAGTACTCTCTCTGTATATATA [XGTACX_site3754],9.08
17,ATTTAGAAAAATAAAACACACATATATCTGTAAATA [CACACA_site6119],9.46
18,TGTTACATAAAATGCACACTTTCAAATATGCTAATA [CACACA_site2925],9.05
